Measurements from PubChem BioAssay AID493208 (National Center for Advancing Translational Sciences (NCATS), 2011).
The whole screen tested about 44,000 compounds, of which about 340 (0.77%) were called active. Inconclusive results (about 5%) are left out. Calls follow the shape of the dose curve; as a rule, active = well fitted inhibition curve with a large enough effect; inconclusive = small, poorly fitted or top-dose-only effect; inactive = flat fitted curve, though single readings scatter. The list shows a part of the results.

Test: Acumen qHTS Assay for Inhibitors of the mTORC1 Signaling Pathway in MEF (Tsc2-/-, p53-/-) Cells: Sytravon;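 also: plate controls were DMSO for no effect and rapamycin for full effect; nearly all actives have a fitted effect of over 50% in size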
Conditions: phospho-rpS6 immunofluorescence/PI, 24 h; series mostly up to 38.3 µM; activity change, negative = inhibition: at the top concentration
Procedure, shortened: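 Readout is phospho-S6 Alexa 488 signal normalized to PI per well, reported as % active cells with thresholds set from rapamycin (7.5 nM) and DMSO controls. Cells: Tsc2-/-, p53-/- MEFs, 24 hrs compound at 37 C; PI cell number serves as viability.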

Activity change, negative = inhibition, inactive:
COc1ccc(N2CCN(C(=O)CSc3c4c(nc5ccc(Cl)cc35)CCCC4)CC2)cc1 1.16%, COc1cccc(CCNC(=O)c2cnc3sc(N4CCCCCC4)nn3c2=O)c1 -5.1%, O=C(Nc1ccc2oc(-c3cccnc3)nc2c1)c1ccc(-c2cccc(Cl)c2)o1 8.56%, COc1ccc(CN(C)c2ccc(-c3nc(-c4ccccc4)no3)cc2[N+](=O)[O-])cc1 1.77%, COc1ccc(S(=O)(=O)c2c(Nc3c(C)cccc3C)sc(C(=O)c3ccc4c(c3)OCO4)c2N)cc1 -0.0481%, Cc1ccc(-n2nc3c(=O)n(CC(=O)NC(C)C)nc(C)c3c2C)cc1 -3.65%, COc1cc(NC(=O)CC2C(=O)N(c3cccc(C)c3)C(=O)N2Cc2ccco2)cc(OC)c1 (stereo not given) -5.05%, CCC(CC)C(=O)Nc1ccc2nc(SCc3ccccc3)sc2c1 -3.17%, COc1ccc2c(CC(=O)Nc3ccc(C)cc3)coc2c1 -8.34%, COc1ccc(NC(=O)CSC2=Nc3ccccc3C3=NC(CC(=O)NCc4ccco4)C(=O)N23)cc1 (stereo not given) -4.63%, O=C(Cn1c(-c2cccs2)cc2ccccc21)N1CCN(c2ccccc2F)CC1 -9.37%, O=C(CSc1nnc(-c2ccncc2)n1-c1ccccc1)Nc1ccc(Cl)c(Cl)c1 -9.88%, Clc1ccc(CCNc2nc3ccccc3c3nc(-c4ccccc4)nn23)cc1 0.12%, CCN(C(=O)CSc1nnc(-c2cc(OC)c(OC)c(OC)c2)o1)c1ccccc1 3.44%, Cc1ccc(C(=O)N(Cc2ccco2)Cc2ccco2)cc1 -5.26%, CCOc1ccc(NC(=O)Cn2cc(C(=O)c3cccs3)c3ccccc32)cc1 3.37%, CCOc1cccc(CC(=O)NCc2ccc3c(c2)CCN3C(=O)c2ccc(F)cc2)c1OCC -3.26%, O=C(CSc1nc2ncccc2[nH]1)Nc1cc(F)ccc1F 0.61%, O=C(CCn1c(=O)c2cccn2c2cccnc21)NCc1ccccc1Cl -6.19%, O=C(NCC(c1cccnc1)N1CCN(c2ccccc2F)CC1)C(=O)Nc1ccc(F)cc1F (stereo not given) 5.13%, COc1cccc(N2CCN(C(=O)C3CCCN(S(=O)(=O)c4cccc5nsnc45)C3)CC2)c1 (stereo not given) -0.421%, Cc1ccc(CNC(=O)CCc2c(C)nn(-c3ccc(N4CCOCC4)nn3)c2C)cc1 4.24%, CCOc1ccc(C(=O)c2cn(CC(=O)Nc3ccc4c(c3)OCO4)c3ccc(OC)cc3c2=O)cc1 0.891%, CCOc1ccc2c(c1)c(=O)c(C(=O)c1ccc(CC)cc1)cn2CC(=O)Nc1ccccc1OC 1.67%, COc1ccc(OC)c(NC(=O)Cn2c(=O)c3cccn3c3ccccc32)c1 9.3%, CCn1c(=O)n(-c2ccc3c(c2)OCO3)c2nc(-c3ccc(C(C)C)cc3)nc(C(N)=O)c21 1.48%, O=C(Nc1cccc(Cl)c1)C1CCCN(c2nn3cc(-c4ccc(F)cc4)nc3s2)C1 (stereo not given) 1.85%, Cc1ccc(Cl)cc1NC(=O)CSc1nc2ccccc2c2nc(-c3ccccc3)nn12 2.54%, CCOC(=O)C1CCN(C(=O)c2nn(-c3ccc(OC)c(Cl)c3)c(=O)c3c2c2ccccc2n3C)CC1 -4.28%, CCOc1ccc(C(=O)Nc2cc(-c3nc4cc(OC)ccc4o3)ccc2C)cc1[N+](=O)[O-] -2.63%, Cc1ccc(S(=O)(=O)c2cn(CC(=O)Nc3cccc(Cl)c3)c3ccccc3c2=O)cc1 -13.5%, O=C(Cn1cc(C(=O)C(F)(F)F)c2ccccc21)N1CCCCCC1 1.31%, CC1(C)N=C(SCc2ccc(F)cc2)c2ccccc2N1 -8.67%, O=C(COc1ccc2ccccc2c1)NC1CC(=O)N(c2ccc(F)cc2)C1 (stereo not given) -2.43%, CCOc1ccccc1NC1(c2ccccc2)C(=O)c2ccccc2C1=O 1.83%, Cc1ccccc1CN1c2ccccc2-c2nc(SCC(=O)c3ccccc3)ncc2S1(=O)=O -4.54%, CCNC(=O)c1ccc2c(c1)nc1n2CCCCC1 1.53%, Cc1ccccc1OCc1nc2c3cnn(-c4cccc(F)c4)c3ncn2n1 -3.9%, Cc1c(CNC2CCCCC2)c(C(=O)O)c(C)n1Cc1ccccc1F 0.859%, CCNC(=O)c1c(NC(=O)Cc2coc3ccc(CC)cc23)sc2c1CCCC2 -4.46%, CC(=O)N1CCCc2cc(S(=O)(=O)N3CCN(c4ccccc4F)CC3)ccc21 -9.13%, COc1cccc(C2C(C(=O)Nc3ccc(Cl)cc3)=C(C)Nc3nc4ccccc4n32)c1OC (stereo not given) 1.92%, Cc1oc2ncn(CC(C)C)c(=O)c2c1C(=O)N(CCN(C)C)Cc1ccccc1 0%, CCCCNC(=O)c1ccc2c(c1)N(CC)C(=O)c1ccccc1S2 0%, Cc1ccc2c(c1)N(C(=O)N1CCC(C(=O)NCc3ccccc3C)CC1)CC(C)O2 (stereo not given) -5.52%, CCCCNC(=O)c1c(-c2ccccc2)c(-c2ccccc2)nn(C)c1=O 1.93%, CC(=O)N1c2ccc(S(=O)(=O)NCc3ccccc3Cl)cc2CC1C (stereo not given) 0.0113%, CCCc1nnc(NC(=O)c2cc(=O)c3ccccc3o2)s1 2.78%, COc1ccc(N2CCN(C(=O)C3CCCN(C(=O)c4cc5sccc5n4C)C3)CC2)cc1 (stereo not given) 2.86%, CCOC(=O)c1c(C)n(-c2ccccc2)c2ccc(OC(=O)COc3ccccc3)cc12 -2.66%, CCCCNC(=O)CN1C(=O)c2cccnc2Sc2ccccc21 -5.95%, CC1=C(C(=O)Nc2cccnc2)C(c2cccc(F)c2)n2nc(SCc3ccccc3F)nc2N1 (stereo not given) 5.81%, COc1ccc(C)cc1NC(=O)c1cc(S(=O)(=O)N2CCOCC2)cn1C 12.9%, O=C(CSc1nc(=O)[nH]c2c1CCCC2)NCc1ccccc1Cl -1.67%, O=C(Nc1cccc(Cl)c1Cl)c1ccc2c(c1)N(Cc1cccc(Cl)c1)C(=O)c1ccccc1S2=O (stereo not given) 0.336%, COc1cc2[nH]c(=O)n(Cc3ccc(C(=O)N4CCN(c5ccc(Cl)cc5)CC4)cc3)c(=O)c2cc1OC 3.67%, Cc1ccc(NC(=O)c2sc3ncn(Cc4cccc(F)c4)c(=O)c3c2C)c(Br)c1 -0.634%, Cc1ccc(C)c(NC(=O)Cn2nc(C)c3nn(-c4ccc(Cl)cc4)c(C)c3c2=O)c1 8.26%, Cc1ccc(N(Cc2cccs2)C(=O)C(C)Oc2ccc(Cl)c(C)c2)cc1 (stereo not given) -14%, COc1ccc(N2CCN(c3ccc(-c4nc(-c5ccccc5)no4)cc3[N+](=O)[O-])CC2)cc1 2.47%, COc1ccc(CNC(=O)CCS(=O)(=O)c2cc(Br)cc3c2N(C(C)=O)C(C)C3)cc1 (stereo not given) -6.62%, CCOc1ccc(CCNC(=O)c2cc3c(=O)n(CC)c4ccccc4c3s2)cc1OCC -13.4%, CCc1cccc(NC(=O)CSc2nncn3c2cc2sccc23)c1 -0.033%, CCN(Cc1ccccc1)C(=O)c1cc(-c2ccccc2)n[nH]1 -7.07%, Cc1ccc(Cl)cc1N1CCN(C(=O)CN2C(=O)COc3ccc(S(=O)(=O)N4CCCCCC4)cc32)CC1 -13.7%, COc1ccc(S(=O)(=O)NCCSc2nnnn2-c2ccccc2)cc1OC -4.53%, Cc1c(C)n(Cc2ccccc2)c2ccc(C(=O)N3CCN(c4ccc(F)cc4)CC3)cc12 4.43%, CC(C)CCNC(=O)c1ccc2c(c1)NC(=O)C(C(C)C)N2 (stereo not given) -0.538%, Cc1oc2ccc(O)c(CN3CCOCC3)c2c1C(=O)Nc1cccc(C(F)(F)F)c1 -12.7%, Cn1cnc(S(=O)(=O)N2CCCC(C(=O)NCc3ccc(Cl)cc3)C2)c1 (stereo not given) 0%, CCN(CC)S(=O)(=O)c1ccc2c(c1)N(CC(=O)N1CCN(c3ccc(OC)cc3)CC1)C(=O)CO2 -10.8%, Cc1ccccc1Nc1c(-c2cccc(Cl)c2)nc2ncccn12 -1.45%, Cc1ccc(-c2onc(C)c2C)cc1S(=O)(=O)N1CCOc2ccc(Cl)cc21 0%, COc1ccc(-n2c(SCC(N)=O)nc3c(oc4ccccc43)c2=O)cc1 -0.0565%, CC(=O)N1CCc2c(sc3c2c(=O)n(Cc2ccccc2)c(=O)n3Cc2ccccc2F)C1 -10.6%, O=C(Cc1cccs1)Nc1c(C(=O)Nc2ccc(F)cc2)oc2ccccc12 -12.6%, CC(C)CN1CCc2nc(Nc3ccc(F)cc3F)ncc2C1 0%, COc1cc(/C=C(\C#N)c2nc3ccccc3[nH]2)ccc1OCc1ccccc1F 3.18%, COc1ccc(CCC(=O)NCc2ccc3c(c2)CCN3C(=O)c2ccccc2)cc1 -5.57%, CCC(Sc1nc(-c2ccc(F)cc2)nc2c1Cc1c(CO)cnc(C)c1O2)C(=O)Nc1ccc(F)cc1 (stereo not given) 0.701%, COc1c(Cl)cc(C(=O)N(Cc2ccccc2F)C2CCS(=O)(=O)C2)cc1Cl (stereo not given) 0.309%, CCS(=O)(=O)N1CCc2cc(C(=O)N3CCN(c4ccccc4OC)CC3)ccc21 2.56%, CC(C)(C)OC(=O)N1CCc2nc(N3CCN(c4ncccn4)CC3)ncc2C1 2.97%, Cn1c(=O)c2c(nc(SCC(=O)Nc3ccc(F)cc3)n2Cc2ccccc2F)n(C)c1=O -0.115%, COc1ccc(C(CNC(=O)c2ccc(F)cc2)N2CCCC2)cc1 (stereo not given) -4.97%, Cc1cc(C)cc(NC(=O)N2CCC(CN3CCCCCC3)CC2)c1 0.667%, CCOc1ccc2nc(NC(=O)c3nc(SCc4ccccc4C)ncc3Cl)sc2c1 1.37%, CCCSc1ncc(Cl)c(C(=O)Nc2c(C(=O)c3ccc(C)cc3)oc3ccccc23)n1 -1.64%, CCC(=O)N1c2ccc(S(=O)(=O)CCC(=O)N3CCN(c4cc(C)ccc4C)CC3)cc2CC1C (stereo not given) -0.484%, O=C(CSc1nc2nccnc2c(=O)n1CCc1c[nH]c2ccccc12)Nc1ccccc1 0%, COC(=O)c1c(NC(=O)/C(C#N)=C/c2ccc(OC)cc2)sc2c1CCC2 9.12%, O=C(NC1CC(=O)N(c2ccccc2)C1)C(c1ccccc1)c1ccccc1 (stereo not given) -0.487%, Cc1c(CCNC(=O)c2ccc(Br)o2)sc2nc(-c3ccc(Cl)cc3)nn12 -0.569%, Cc1ccc(C(=O)N2CCCCC2)cc1NC(=O)c1nsc2ccccc12 -10.4%, COc1ccc(S(=O)(=O)N2CCC(N3CCN(Cc4ccc(F)cc4)C(=O)C3=O)CC2)cc1 0.547%
